This is one part of the list.
B1: chr14:92688591:92688692:+|3pUTR|ENSG00000100599|msi1|FALSE|unique (ssRNA)
RNA: GGGAGUUCUACAGUCCGACGAUCUCCCCAUGAGUCCCCCACACCCACCCCAUCCUCGGUCUUUGCAAAGAAGGGCCCGAGCUUAGUUUCCCCAGGACUGGCCUAGGAAGGAGCACCGGCCACAGCUGCUCCCCGUGCCACUCACAACAGAGGAUUGAGCAUCA
B2: chr6:15520333:15520434:+|3pUTR|ENSG00000008083|unk|FALSE|unique (ssRNA)
RNA: GGGAGUUCUACAGUCCGACGAUCCUUGCUGUAGGAUUCAAGCUGUCUUUGCACUAGCUCUAAAGAAGAUUUUCUUCUGGUUUUAGAGAACUAAUUUUGUUUUAGCAUUAAACUGUUGAACUUUUUUUUGUACUUAGAAAACCUCAACAGAGGAUUGAGCAUCA
B3: chr2:209733988:209734100:+|3pUTR|ENSG00000078018|unk|total|mutant (ssRNA)
RNA: GGGAGUUCUACAGUCCGACGAUCUCUGAUAAUUCCCGAGCCUGUUACCACCGAAAGGCAUUUCUUCAAUGGCUGGUUGCCGUCCGUUCAUGUUUUUCAAUCAAAUUUGCAAAUGUAUUUGUUGCUGUACCGUGAUUGUUUUGCCAACAGAGGAUUGAGCAUCA
B4: chr8:80637648:80637749:-|3pUTR|ENSG00000164684|unk|total|mutant (ssRNA)
RNA: GGGAGUUCUACAGUCCGACGAUCUGCGCUCCGCUGCAAAGUGCCUGUCAGCAGCUCCAGGCACCAACAAGGUGCCCUUUUAUCCGACAAUUCCUGCCCGAACAUAACCAUAUUGCAGAUGAAAAUUUUCAACCGAGAAUGACACAACAGAGGAUUGAGCAUCA
B5: ENSG00000198589:be:win_8251|CDS|ENSG00000198589|bound_else_gene|NA|bound_elsewhere_windowed (ssRNA)
RNA: GGGAGUUCUACAGUCCGACGAUCCUCUUCUGUACAUUCAGUGUGAAUGGAAAACUCCAGGCCACGAUGGAAACAGAUGAUAACAUAAGAGCCAUCCAGCUGAGCCGAGAUGGGCAGUACCUGCUCACAGGAGGAGACAGAGGACAACAGAGGAUUGAGCAUCA
B6: chr8:41263181:41263319:-|3pUTR|ENSG00000104332|msi1|total|mutant (ssRNA)
RNA: GGGAGUUCUACAGUCCGACGAUCCUUAAGUGAUUUGCCUGUAAUUUUGGAUGAUUAAAAAAUGUGUAUAUAUAUCCGCUAAUCCGAAAUAUUCUACUUCUCUGUUGUCAAACUGAAAUUCAGAGCAAGUUCCUGAGUGCGUGGCAACAGAGGAUUGAGCAUCA
B7: ENSG00000107863:be:win_1951|CDS|ENSG00000107863|bound_else_gene|NA|bound_elsewhere_windowed (ssRNA)
RNA: GGGAGUUCUACAGUCCGACGAUCCCAGUAAAUCACUUGCAUCAGAACAGUCUGUUGAAUCAGCAGACAUGGGUAAGGACUGACAGUGCCCCCGAUCAGCAAGUGGAGACUGGGAAAUCCCCCUCUUUAUCUGGAGCCUCUGCCCAACAGAGGAUUGAGCAUCA
B8: chr15:73714018:73714119:+|3pUTR|ENSG00000103855|msi1|total|mutant (ssRNA)
RNA: GGGAGUUCUACAGUCCGACGAUCCCCACCCAUAAUUCUUACCCAGAGCAUGGGGUUGGGGCGGAAACCUGGAGAGAGGGACACCGCCCCUCGCCACGGCCCGAGAAUCUGGUGGUGUCCAAAAUGUCUGUCCAGGUGUGGGCACAACAGAGGAUUGAGCAUCA
B9: ENSG00000182541:stop:overlap|stop_codon|ENSG00000182541|stop_codon|NA|stop_codon (ssRNA)
RNA: GGGAGUUCUACAGUCCGACGAUCUGGAGGAGUUGGACCACACUGUGAGCAUGCAGUACGGCCUGACCCGGGACUCACCUCCCUAGCCCUGGCCCAGCCCCCUGCAGGGGGGUGUUCUACAGCCAGCAUUGCCCCUCUGUGCCCCAACAGAGGAUUGAGCAUCA
B10: ENSG00000120802:stop:overlap|stop_codon|ENSG00000120802|stop_codon|NA|stop_codon (ssRNA)
RNA: GGGAGUUCUACAGUCCGACGAUCGUGGAACAUUAUUUGGAGGAGAAGUAUGCAAAGUAAUUAAAAAGCGUGGAAAUAAACACUAGUAAAAUUAAGGACAAAAAGACAUCUAUCUUAUCUUUCAGGUACUUUAUGCCAACAUUUCAACAGAGGAUUGAGCAUCA
B11: chr12:285015:285116:-|3pUTR|ENSG00000073614|msi1|total|mutant (ssRNA)
RNA: GGGAGUUCUACAGUCCGACGAUCUAACAGGGCAUACCGGAUGUGGCUUUUGUCCAGCUGACCGCCGUCCGAGGCUUACAACUCCGGAGCAGCACCAACUGAAGGUGCUAAUUGCUUGGAUCUCCUUCAUUGGGACCGUUGGAGCAACAGAGGAUUGAGCAUCA
B12: chr8:23843870:23844003:-|3pUTR|ENSG00000159167|msi1|FALSE|unique (ssRNA)
RNA: GGGAGUUCUACAGUCCGACGAUCAAUUCCAGAGGACUCUGCUUAAACAAAGCAGUAUAUAAUAACUUUAUUGCAUAUAGAUUUAGUUUUGUAACUUAGCUUUAUUUUUCUUUUCCUGGGAAUGGAAUAACUAUCUCACUUCCACAACAGAGGAUUGAGCAUCA
B13: chr8:96333981:96334082:+|3pUTR|ENSG00000156471|msi1|FALSE|bound_elsewhere (ssRNA)
RNA: GGGAGUUCUACAGUCCGACGAUCUUAAGUUCAGGCCACUUUUCUGUCUUUUAUUUGGUUACUGUUGUUAUUUGUUUUUAAGUUAGGAUGCUUUUUAACAGCCUUUAGAAGCCGCUGCUGAAAUUGAUACUGGGGGAAGGGUUCCAACAGAGGAUUGAGCAUCA
B14: chr5:136988535:136988636:-|CDS|ENSG00000152377|msi1|FALSE|unique (ssRNA)
RNA: GGGAGUUCUACAGUCCGACGAUCGGAAAGCAUCAGGCUUGGUGGCAGCUGAGAUAUGCCUUUUGUUUGGCAGGGUUUGACACUAGCAUCCUGCCCAUCUGCAAGGACUCCCUGGGCUGGAUGUUCAACAAGUUGGACAUGAACCAACAGAGGAUUGAGCAUCA
B15: ENSG00000107863:be:win_1801|CDS|ENSG00000107863|bound_else_gene|NA|bound_elsewhere_windowed (ssRNA)
RNA: GGGAGUUCUACAGUCCGACGAUCACUACUUGUGGAAUGUCACUGCCUCGGGGUAUUUCACAAGACAGGUCACCUCUUGUGAAAGUCCGAAGUAAUUCUCUGAAAGCUCCUUCCACGCAUGUCACAAAACCAUCAUUUAGCCAGCAACAGAGGAUUGAGCAUCA
B16: chr1:20652278:20652361:-|3pUTR|ENSG00000244038|msi1_unk|total|mutant (ssRNA)
RNA: GGGAGUUCUACAGUCCGACGAUCGACUGAGGGGCCCGAGCCCUCUCCGCACAGCGUGGAGACGGGGCAAGGAGGGGGGUUAUCCGGAUUGGUGGUUUUGUUUUGCUUUGUUUAAAGCCGUGGGAAAAUGGCACAACUUUACCUCAACAGAGGAUUGAGCAUCA
B17: chr3:130733575:130733676:-|CDS|ENSG00000196455|msi1|total|mutant (ssRNA)
RNA: GGGAGUUCUACAGUCCGACGAUCCGUCAAAGAGGUUCCUCGUAAUGAUAUCAAUAUUUAUCCGGAAUACAUUCUGCCAGGCACCGCCCACUCCGCCCAAGAUGAUGCUACUAUCGUCCGACCCGCCUAUGCUGGUAAGAGUUUCAACAGAGGAUUGAGCAUCA
B18: chr1:42926584:42926685:-|3pUTR|ENSG00000117394|msi1|total|mutant (ssRNA)
RNA: GGGAGUUCUACAGUCCGACGAUCGCCUGAGGGUGGAGACUAAGCCCUGUCGAGACACUUGCCUUCUUCACCCAGCUAAUCUGCCGGGCUGGACCUAUGUCCUAAGGACACACUAAUCGAACUAUGAACUACAAAGCUUCUAUCCAACAGAGGAUUGAGCAUCA
B19: chr1:248623556:248626177:-|three_prime_utr|ENSG00000279301|control|control|control (ssRNA)
RNA: GGGAGUUCUACAGUCCGACGAUCUGCAGAGAUCUUUCAGUGAAGUAUCAAAAAUGGUUUAUUAUGAAGUUAAAUAAUUUAUCUAGUCUUUUUAUUUAGGGAAGAAAAACCCCAAAUAUUAGAGUUCACAGCAACCUUUCACUCCAACAGAGGAUUGAGCAUCA
B20: chrX:106032434:106033499:-|three_prime_utr|ENSG00000123561|control|control|control (ssRNA)
RNA: GGGAGUUCUACAGUCCGACGAUCGGAAAAAGGCCAUUGGCUAAUUGCACGUGUGUAUUGCAAUGGGAAAUAAAUAAAUAAUAUAGCCUGGUGUGAUUGAUGUGAGCUUGGACUUGCAUUCCCUUAUGAUGGGAUGAAGAUUGACAACAGAGGAUUGAGCAUCA
B21: chr8:73046310:73046411:+|3pUTR|ENSG00000147601|msi1|total|mutant (ssRNA)
RNA: GGGAGUUCUACAGUCCGACGAUCUUGUAUUCUUUAAGAACCUUAUUUUGAUAAAAUGUAAAUUUGUUGAACCCUGCCACAUUCCGUAUCCCCACCCCCAAAUCCUGUUCCAAUGAAAAAAUUAAAACCUGAUACGAAAAAAAACAACAGAGGAUUGAGCAUCA
B22: chr5:91374913:91375023:-|CDS|ENSG00000113369|unk|total|mutant (ssRNA)
RNA: GGGAGUUCUACAGUCCGACGAUCGAGACGUGGAAUGGCAAGUUGCUGAAAAUUCCACCAGUUUCUCCCUCUAUCCUCGACUGCCGUAUAAUCCGCGUGGAAUAUUCACUAAUGGUAUGUACACAUUUAAGAGGUUUUUUCCUUCAACAGAGGAUUGAGCAUCA

Target: MSI1 full-length (mouse, UniProt Q61474 1-362)
Assay: nsRBNS (natural sequence RNA bind-n-seq); RBNS binding buffer (assumed for nsRBNS): 25 mM Tris pH 7.5, 150 mM KCl, 3 mM MgCl2, 0.01% Triton X-100, 500 ug/ml BSA, 20 U/ml SUPERase-In, 4 C; UNK is unkempt and MSI1 is Musashi-1; names of the RNAs are library labels; protein concentration not given here; high values mean tight binding

UniProt Q61474, sequence (Q61474 whole entry): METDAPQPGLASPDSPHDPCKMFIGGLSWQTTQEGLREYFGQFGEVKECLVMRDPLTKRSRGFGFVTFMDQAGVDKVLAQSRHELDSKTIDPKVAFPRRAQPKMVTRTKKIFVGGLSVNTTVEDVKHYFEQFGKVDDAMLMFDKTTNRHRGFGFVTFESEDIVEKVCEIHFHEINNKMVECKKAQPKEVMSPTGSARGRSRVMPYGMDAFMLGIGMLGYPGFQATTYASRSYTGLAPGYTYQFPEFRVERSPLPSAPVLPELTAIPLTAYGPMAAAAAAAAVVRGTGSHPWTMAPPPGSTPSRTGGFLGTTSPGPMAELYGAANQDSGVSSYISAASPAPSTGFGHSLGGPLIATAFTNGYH

Compared with B1, B2 is higher in binding signal: 0.67 enrichment R for the first, 3.97 enrichment R for the second.

First: B3
Second: B4
The binding signal of the first is lower: 0.236 enrichment R for the first, 0.515 enrichment R for the second.

Compared with B5, B6 is higher in binding signal: 0.336 enrichment R for the first, 0.429 enrichment R for the second.

Compared with B7, B8 is lower in binding signal: 0.425 enrichment R for the first, 0.222 enrichment R for the second.

Going from B9 to B10, the binding signal rises from 0.577 enrichment R to 1.57 enrichment R.

Compared with B11, B12 is higher in binding signal: 0.508 enrichment R for the first, 7.3 enrichment R for the second.

Compared with B13, B14 is lower in binding signal: 1.79 enrichment R for the first, 0.495 enrichment R for the second.

Compared with B15, B16 is lower in binding signal: 0.533 enrichment R for the first, 0.383 enrichment R for the second.

Compared with B17, B18 is lower in binding signal: 0.583 enrichment R for the first, 0.476 enrichment R for the second.

First: B19
Second: B20
The binding signal of the first is higher: 1.73 enrichment R for the first, 0.443 enrichment R for the second.

Compared with B21, B22 is lower in binding signal: 2.83 enrichment R for the first, 0.305 enrichment R for the second.

— article PMC12136788
